From PubChem BioAssay AID686978 (National Center for Advancing Translational Sciences (NCATS), 2013)
Out of some 420,000 compounds screened, about 64,000 (15%) were called active. The shares of active, inactive and inconclusive entries below differ from those in the screen. Calls come from the whole dose curve; as a rule, active = well fitted inhibition curve with a large enough effect; inconclusive = small, poorly fitted or top-dose-only effect; inactive = flat fitted curve, though single readings scatter. Potencies of inconclusive entries are left out as doubtful fits.

experiment: qHTS for Inhibitors of human tyrosyl-DNA phosphodiesterase 1 (TDP1): qHTS in cells in absence of CPT; conditions: DT40 Tdp1-/- hTDP1 cells, no CPT, ATP luminescence, 48 h; activity change, negative = growth inhibition: at 46.2 µM (top of the series) unless noted; note: nearly all actives have a fitted effect of over 55% in size
How it was run: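 Compound effects on proliferation are scored in DT40 Tdp1-/-;hTDP1 cells in the absence of CPT. ATP levels (CellTiter-Glo luminescence) are recorded after a ≥48 hr, 37 °C incubation.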
% is set by controls: 0 for no effect and ±100 for the full control effect; potency is the fitted concentration of half-maximal effect; tags give direction and shape of the fitted curve.

| SMILES | activity change, negative = growth inhibition | Potency |
| --- | --- | --- |
| OC(CN1CCCC1)c1ccccc1 (configuration not stated) | inactive: -28.2% | – |
| CC1(C)Cc2ccccc2-c2nnc(SCC(=O)Nc3ccc4c(c3)OCO4)n21 | – | inconclusive [inhibitor, single point] |
| O=C(c1ccco1)N1C(=O)c2cccc3c(S(=O)(=O)N4CCCC4)ccc1c23 | – | inconclusive [inhibitor, single point] |
| O=C(CSC1=NS(=O)(=O)c2cc(F)ccc2N1)Nc1ccccc1F | – | inconclusive [inhibitor, single point] |
| O=C(CN1CCCCC1)n1c2ccccc2c2ccccc21 | – | inconclusive [inhibitor, single point] |
| Cc1cc2oc(=O)cc(CN(C)Cc3ccccc3F)c2cc1Cl | – | inconclusive [inhibitor, single point] |
| CCCCn1cc(S(=O)(=O)c2ccc(C)c(C)c2)c(=O)c2cc(F)c(N3CCCC(C)C3)cc21 (configuration not stated) | – | inconclusive [inhibitor, single point] |
| CCS(=O)(=O)N1CCc2cc(C(=O)Nc3ccc(OC)c(Cl)c3)ccc21 | – | active: 18.4 µM |
| CCC(=O)N(c1nnc(SC(C)C(=O)Nc2ccc(N3CCOCC3)cc2)s1)C1CC1 (configuration not stated) | inactive: -21.3% | – |
| CCC(=O)Oc1oc(-c2ccccc2)nc1C=Nc1ccccc1OC | – | inconclusive [inhibitor, single point] |
| CC(C)N(Cc1ccccc1)C(=O)COC(=O)c1cc(S(=O)(=O)N(C)C)ccc1N1CCCC1 | – | active: 14.6 µM |
| CC1CCc2sc3ncnc(N4CCN(C)CC4)c3c2C1 (configuration not stated) | – | inconclusive [inhibitor, partial curve, poor fit] |
| Cc1cc(C)n(-c2nnc(C)n2/N=C/c2ccccc2O)n1 | inactive: -1.6% | – |
| COc1ccc(CCNC(=O)CCCn2c(=O)c3ccccc3n(Cc3cccc(Cl)c3)c2=O)cc1OC | – | inconclusive [inhibitor, single point] |
| COC(=O)c1[nH]c2c(c1C(=O)OC)CCc1ccccc1-2 | inactive: -1.3% | – |
| CCN(C(=O)c1cc(Cl)ccc1OC)C1CCCCC1 | – | active: 23.1 µM |
| COc1ccc(C(=O)NC(C)c2nnc(SCC(=O)Nc3nc4ccccc4s3)n2C)cc1 (configuration not stated) | – | inconclusive [inhibitor, single point] |
| O=C(c1ccc([N+](=O)[O-])s1)N1CCN(c2ncccn2)CC1 | – | inconclusive [inhibitor, single point] |
| CCc1cc2c(COC(=O)c3cc(S(=O)(=O)N4CCOCC4)ccc3F)cc(=O)oc2cc1O | – | inconclusive [inhibitor, single point] |
| Cc1ccc(-c2nc3scc(CCNC(=O)Cc4ccc(Cl)cc4)n3n2)cc1 | – | active: 18.4 µM |
| Cc1ccc(C)c(S(=O)(=O)N2CCN(Cc3ccc(O)c4ncccc34)CC2)c1 | – | active: 5.8 µM |
| COC(=O)C1=C(C)N(CCCC(=O)O)C(=O)NC1c1ccccc1Cl (configuration not stated) | inactive: -1.16% | – |
| CCNc1ncc2nc(-c3ccc(F)cc3)c(=O)n(-c3ccc(OC)cc3)c2n1 | – | active: 0.58 µM |
| CCOc1ccc(N(C(=O)CC(C)C)S(=O)(=O)c2ccc3c(c2)oc(=O)n3C)cc1 | – | inconclusive [inhibitor, single point] |

| SMILES | activity change, negative = growth inhibition | Potency |
| --- | --- | --- |
| O=C(CSc1ccccc1)N1CCCC(N2CCN(c3ccccc3)CC2)C1 (configuration not stated) | inactive: -17.8% | – |
| CCNC(=O)COC(=O)/C=C/c1ccccc1[N+](=O)[O-] | inactive: -8.95% | – |
| CCn1c(SC)nnc1C1CCN(S(=O)(=O)c2ccc(OC)cc2)CC1 | inconclusive: -32.9% [inhibitor] | – |
| Nc1ncnc2c1ncn2[C@@H]1O[C@H](C(=O)NCCCN2CCCC2=O)[C@@H](O)[C@H]1O | inactive: 15.4% | – |
| C=CCSc1nnc(CCCCCN2C(=O)c3cccc4cccc(c34)C2=O)o1 | – | inconclusive [inhibitor, single point] |
| Cc1ccc(SCCCCN2C(=O)NC(C)(C)C2=O)cc1 | inactive: -26.6% | – |
| Nc1nc2n(n1)C(c1cccs1)CC(c1ccccc1)N2 (configuration not stated) | inactive: -1.73% | – |
| Cc1nc2c(C)[n+](CC(=O)c3ccccc3)ccc2n1C | inactive: -21.6% | – |
| CC[C@]12c3[nH]c4ccc(Cl)cc4c3CCN1C(=O)[C@@H](CC(=O)NCC13CC4CC(CC(C4)C1)C3)C[C@@H]2C(=O)N1CCN(C(=O)c2ccco2)CC1 | – | active: 13 µM |
| COCCCn1c(SCC(=O)Nc2sc3c(c2C#N)CCCC3)nnc1-c1ccncc1 | inconclusive: -7.97% [inhibitor] | – |
| COC/C=C/C1=CC2=CC(=O)C(C)(OC(=O)c3cnc4ccccc4n3)C(=O)C2=CN1c1ccc(OC)cc1 (configuration not stated) | – | inconclusive [inhibitor, single point] |
| CCC1CN(C(=O)N2CCC(C(=O)NCCc3ccc(Cl)cc3)CC2)c2ccccc2O1 (configuration not stated) | – | active: 14.6 µM |
| c1csc(C(c2nnnn2C2CCCCC2)N2CCCC3(CCCCC3)C2)c1 (configuration not stated) | – | active: 23.1 µM |
| CCCn1c(SCC(=O)N2CCCc3ccccc32)nnc1-c1ccccn1 | – | inconclusive [inhibitor, single point] |
| Cc1cccc(C)c1NC(=O)CSc1nc(-c2ccccc2)nc2c1Cc1c(CO)cnc(C)c1O2 | inactive: -4.19% | – |
| CCCn1c(SCc2nc(-c3ccc(OC)cc3OC)no2)nnc1-c1ccc(Cl)cc1 | – | active: 25.9 µM |
| O=C1NCCN(Cc2ccc(F)cc2)C1=O | inactive: 0.357% | – |
| COc1ccccc1/C=c1\sc2nc(-c3ccco3)nn2c1=O | – | inconclusive [inhibitor, single point] |
| CCN(CC)c1ccc(NS(=O)(=O)c2ccc(-c3cnc(C4CC4)o3)cc2)c(C)c1 | – | active: 16.4 µM |
| Cc1nnc(-c2ccccc2)c(=O)n1/N=C/c1c(O)ccc2ccccc12 | – | active: 5.17 µM |
| Cc1noc(C)c1S(=O)(=O)N(CC(=O)NCc1ccc2c(c1)OCO2)c1ccc(C(C)C)cc1 | – | inconclusive [inhibitor, single point] |
| O=C(NCc1ccccc1)c1cccc(NC(=O)C2CCC2)c1 | inactive: -13.2% | – |
| CN(CC(=O)Nc1c(Cl)cccc1Cl)C(=O)CNC(=O)c1sc2ccccc2c1Cl | – | inconclusive [inhibitor, single point] |
| CCOC(=O)Cn1c(CN(Cc2ccccc2)Cc2ccccc2)nc2c1c(=O)[nH]c(=O)n2C | – | inconclusive [inhibitor, single point] |

| SMILES | activity change, negative = growth inhibition | Potency |
| --- | --- | --- |
| CC1(C)CC2CN(C(=O)Cc3ccccc3)C(C)(C2)C1 (configuration not stated) | – | active: 16.4 µM |
| Cn1c(=O)c(=O)n(C)c2cc(S(=O)(=O)NCCc3ccccc3)ccc21 | inactive: -4.87% | – |
| CCOc1ccc(CN2CCN(Cc3ccsc3)C(CCO)C2)cc1CO (configuration not stated) | inactive: -15% | – |
| Cn1c(SCc2ccc(F)cc2)nc2ccc(C(=O)NCc3ccc(Cl)cc3)cc21 | – | inconclusive [inhibitor, single point] |
| CCC1C(=O)NCCN1Cc1ccc2c(c1)CN(Cc1cccn1-c1ccc(Cl)cn1)CCO2 (configuration not stated) | – | inconclusive [inhibitor, single point] |
| Cc1ccsc1/C=C1\Oc2cc(O)ccc2C1=O | – | inconclusive [inhibitor, single point] |
| COc1cc(NS(=O)(=O)c2ccc3c(c2)NC(=O)CO3)cc(OC)c1 | – | inconclusive [inhibitor, full curve] |
| COc1ccc(-c2noc(CN(C(=O)COc3cc(C)c(Br)c(C)c3)C(C)C)n2)cc1 | – | active: 23.1 µM |
| Cc1ccc(C(=O)NNC(=O)c2csc(N3CCOCC3)n2)s1 | inactive: -11.3% | – |
| C[C@@H]1CN([C@H](C)CO)C(=O)c2cccc(NC(=O)NC3CCCCC3)c2O[C@@H]1CN(C)C(=O)Nc1ccc(C(F)(F)F)cc1 | – | inconclusive [inhibitor, single point] |
| CCOc1ccc(CCN2C(=S)N([C@@H](Cc3ccc(O)cc3)CN3CCC[C@@H]3CN3C(=S)NC[C@@H]3CC(C)C)C[C@@H]2Cc2ccc(O)cc2)cc1 | – | active: 3.66 µM |
| COc1ccccc1N1CCN(c2ccc3c(c2)S(=O)(=O)c2cccc(C(=O)NCc4ccc(F)cc4)c2C3=O)CC1 | – | active: 2.59 µM |
| Cn1c(=O)c(=O)n(C)c2cc(N3CCOCC3)c(NS(=O)(=O)c3ccc(Cl)cc3)cc21 | – | inconclusive [inhibitor, partial curve] |
| COC(=O)c1scc(-c2ccc(C)cc2)c1S(=O)(=O)Nc1cc(Cl)ccc1C | – | inconclusive [inhibitor, single point] |
| O=C(NNc1ccccn1)c1ccccc1CC[N+](=O)[O-] | inactive: -13.1% | – |
| O=C(NCc1nc2ccccc2[nH]1)C1=C[C@H](c2ccc3c(c2)OCO3)C[C@H](OCCCCO)O1 | – | inconclusive [inhibitor, single point] |
| O=C(Cc1cccc2ccccc12)Nc1cc(Cl)ccc1C(=O)O | – | inconclusive [inhibitor, full curve] |
| COc1ccc(C(=O)NNc2ccccc2)cc1 | inactive: 21.4% | – |
| Cc1ccc(NC(=O)COc2coc(CN3CCc4ccccc4C3)cc2=O)cc1Cl | – | inconclusive [inhibitor, single point] |
| CCc1ccc(-c2csc(NC(=O)C3=COCCO3)n2)cc1 | – | inconclusive [inhibitor, single point] |
| O=C(CCN1C(=O)C2C3C=CC(C3)C2C1=O)N1CCN(c2cccc(Cl)c2)CC1 (configuration not stated) | – | active: 16.4 µM |
| CCC1CCCCN1C(=O)CCc1nnc(Cc2cc(OC)ccc2OC)o1 (configuration not stated) | inactive: -5.21% | – |
| Cc1ccc(C(=O)N/N=C2\CCc3ccccc32)c(C)c1 | – | inconclusive [inhibitor, single point] |
| CCc1ccc(S(=O)(=O)c2cn(CC(=O)Nc3ccc(C)cc3)c3ccccc3c2=O)cc1 | – | inconclusive [inhibitor, single point] |
